Data published in PubChem BioAssay AID1362 (SRMLSC, 2008).
The other results are listed elsewhere or left out. Shown are side measurements of this screen, not its main read-out; they come without a call. Most of these compounds were active or inconclusive in the main read-out, so they are no random draw.

Assay: growth inhibition of WT strain, primary screen, mitochondrial fusion inhibitor project, WT and mutant strains, chemical genetic (AID 1362); note: tested in S. cerevisiae
Details: mitochondrial fusion phenotypic screen, at 10 µM

Row | SMILES | inhibition [%]
1 | Cc1ccc(Sc2ccc(NC(=O)CCl)cc2)cc1C | 21.6
2 | c1ccc(-c2csc3ncnc(NCC4COc5ccccc5O4)c23)cc1 (centres undefined) | 45.6
3 | CCOc1cccc(CNc2ccc(O)cc2)c1OCc1ccc(Cl)cc1Cl | 30.3
4 | O=[N+]([O-])c1ccc(N/N=C/c2c[nH]c3ccccc23)c(S(=O)(=O)Nc2ccc(Cl)cc2)c1 | 89.7
5 | O=C(NC1CCS(=O)(=O)C1)c1ccc(-c2ccc(Br)cc2)o1 (centres undefined) | 8.91
6 | Cc1cccn2cc(CSc3nnc(Nc4ccc(C(C)C)cc4)s3)nc12 | 25.1
7 | CC(C)(C)c1ccc(NC(=O)CNC2CCCc3ccccc32)cc1 (centres undefined) | 64.3
8 | CN=C1S/C(=C\c2cc(C)n(-c3ccccc3F)c2C)C(=O)N1C | 27.1
9 | COc1ccc(Cc2nc3ccc(S(=O)(=O)N4CCOCC4)cc3[nH]2)cc1 | 5.2
10 | CCc1cc(-c2n[nH]c(=S)n2-c2cccc(C)c2)cs1 | 19.7
11 | Cc1cc(N/N=C/c2ccccc2)nc(NCc2ccccc2)n1 | 34.4
12 | COc1ccccc1NC(=S)NC1CCCCCC1 | 21.9
13 | CCOC(=O)c1c(NC(=O)OC)sc(C(=O)N(C)C)c1C | 20.2
14 | FC(F)(F)c1cccc(NC(=S)NCc2ccc(Cl)cc2)c1 | 38.5
15 | Cc1nn(Cc2ccccc2Cl)c(C)c1NC(=O)NC12CC3CC(CC(C3)C1)C2 | 20.6
16 | Cc1ccc(Nc2nc(-c3cccs3)cs2)nc1 | 56.5
17 | CCC(C)/C(C)=N/NC(=O)c1ccc(COc2ccc(Cl)c(C)c2)cc1 (centres undefined) | 67.3
18 | CCCCSc1nnc(-c2ccccc2)c2ccccc12 | 25.3
19 | O=C(OC1CCCCC1)c1ccc(NC(=O)c2ccco2)cc1 | 65.2
20 | CC(C)(C)c1ccc(OC(=O)c2ccc3nsnc3c2)cc1 | 41.7
21 | CC(C)(C)c1ccc(OCc2nc(-c3ccccn3)no2)c(Br)c1 | 39.9
22 | CCOC(=O)c1c(C)n(-c2ccc(C)cc2)c2ccc(OCC(O)CN3CCN(C)CC3)cc12 (centres undefined) | 33.7
23 | Cc1cccc(CSC(Nc2ccc(F)cc2)=C(C#N)C#N)c1 | 55.4

Row | SMILES | inhibition [%]
24 | O=C(NCc1ccco1)c1cc(-c2ccccc2)on1 | 4.37
25 | COc1ccc(C(=O)Nc2nc3ccccc3s2)cc1OC | 28.3
26 | Nc1nc(CSc2nnnn2-c2ccccc2)nc(N2CCCc3ccccc32)n1 | -5.93
27 | CC1CCCN(C(=O)N2c3ccccc3Sc3ccccc32)C1 (centres undefined) | 18.5
28 | CN1C(=O)c2ccccc2Sc2ccc(NC(=O)N3CCCC3)cc21 | 32.4
29 | O=C(Nc1ccc([N+](=O)[O-])cc1)Nc1nc(-c2ccc(Cl)s2)cs1 | 80.6
30 | Cn1c(NCCCO)nc2c(c1=O)C1(CCCCC1)Cc1ccccc1-2 | 25.2
31 | O=C1C=C(c2ccccc2)C(=O)N1Nc1ccccc1 | 84.5
32 | C/C(=N\OCC(=O)NC12CC3CC(CC(C3)C1)C2)c1cc2ccccc2o1 | 23.8
33 | O=C(Nc1nc(-c2ccccn2)cs1)c1ccc(Br)s1 | 14.8
34 | Cc1ccc(Nc2nc(N)c([N+](=O)[O-])c(NCc3ccco3)n2)cc1C | 19.8
35 | CCCCCCCCCCCCCCCC[n+]1ccc(C(N)=O)cc1 | 99
36 | Cc1ccccc1-c1ncc(CN2CCC(CO)(CCCc3ccccc3)CC2)cn1 | 82.7
37 | CN(C)CCCN1c2ccccc2Sc2ccc(C(F)(F)F)cc21 | 95
38 | Cn1c(-c2sccc2OCc2ccc(Cl)cc2Cl)n[nH]c1=S | 52.3
39 | CCOc1cc(-c2nc(C)c(C(C)=O)n2O)ccc1OCC(=O)Nc1cccc(C)c1 | 34.2
40 | c1ccc(-c2csc3ncnc(N4CCc5ccccc5C4)c23)cc1 | -18.6
41 | CC(=O)Oc1cc2c(cc1Cl)C1(CC(c3ccccc3Cl)O2)CC(C)(C)NC(=S)N1 (centres undefined) | 27.9
42 | Cc1ccc(C(C)NC(=O)/C(C#N)=C\c2c(C)[nH]c3ccccc23)cc1 (centres undefined) | 69.1
43 | O=C(OC(c1ccccc1)c1nccc2ccccc12)c1cccc([N+](=O)[O-])c1 (centres undefined) | 63.8
44 | Cc1cc(Cl)ccc1Oc1ncc(CN2CCN(c3ccccc3)CC2)s1 | 47.2
45 | Cc1ccc(NS(=O)(=O)c2ccc(C)c(NC(=O)COc3ccccc3)c2)c(C)c1 | 52.6
46 | Cc1cccc(OCC(=O)Nc2nc3ccc([N+](=O)[O-])cc3s2)c1C | 4.39

Row | SMILES | inhibition [%]
47 | COc1ccccc1NC(=S)N(Cc1ccc(C)cc1)Cc1cccnc1 | 34
48 | Cc1cc(Nc2cccc(C(F)(F)F)c2)n2nc(C)nc2n1 | -5.29
49 | CC(=O)Nc1ccc(S(=O)(=O)N2CCN(C)CC2)cc1 | -12.3
50 | CCc1c(C)nc(Nc2nc(C)c3ccc(OC)cc3n2)[nH]c1=O | 37.2
51 | CC(C)(C)c1ccc(S(=O)(=O)Nc2ccc(Cc3ccncc3)cc2)cc1 | 1.83
52 | CCOC(=O)c1c(C)[nH]c(N=Nc2cccc(C)c2)c1C | 63.1
53 | COc1ccc(CCN(Cc2cc3cc(C)cc(C)c3nc2Cl)C(=O)C2CC2)cc1 | -1.48
54 | O=C(NC1CC1)c1ccc2c(c1)C1C3CCC(C3)C1C(c1ccccc1)N2 (centres undefined) | 40.4
55 | COc1ccc(/C=C/C(=O)c2ccc(O)cc2)cc1COc1ccc(F)cc1 | -6.2
56 | O=[N+]([O-])c1ccc(O)c(-c2nc(-c3ccccc3)c(-c3cccs3)[nH]2)c1 | 55.1
57 | CCc1ccc(C2=CC(c3cc(Br)ccc3F)n3ncnc3N2)cc1 (centres undefined) | 14.9
58 | O=[N+]([O-])c1ccc(/C=N/Nc2nc(N3CCCCCC3)nc(N3CCCCCC3)n2)o1 | 6.1
59 | O=S(=O)(Nc1cccc(-c2nc3cccnc3s2)c1)c1ccc2c(c1)OCCO2 | 22
60 | CC(C)Oc1ccccc1OCCCOc1cccc2cccnc12 | 44.3
61 | S=C(NCCNCc1ccccc1)NC1CCCCC1 | 4.03
62 | O=C1c2cccc3c([N+](=O)[O-])ccc(c23)C(=O)N1Cc1cccnc1 | 36.9
63 | S=C(NCc1ccc2[nH]c3c(c2c1)CCCC3)Nc1ccccc1 | 47
64 | N#CCc1ccc(NS(=O)(=O)c2ccc(C3CCCCC3)cc2)cc1 | 2.1
65 | CC(C)(C)[C@@H]1C=C(C(=O)N2CCN(Cc3ccc4c(c3)OCO4)CC2)O[C@H](OCc2ccc(CO)cc2)C1 | 60.4
66 | COc1cccc(C(=O)N/N=C(/c2ccccc2)c2ccccn2)c1 | 33.7
67 | CCOC(=O)c1c(N)sc(C(O)(C(F)(F)F)C(F)(F)F)c1-c1ccccc1 | 33.9
68 | N#Cc1c(NC(=S)NC(=O)C2CCCC2)sc2c1CCCCC2 | 5.24
69 | COc1cc(OC)cc(C(=O)N2CCC(n3c(C)nc4cc(F)ccc43)CC2)c1 | 14.4
